# Results: publication PMC4336329 (PLoS ONE, 2015)
# About 14,000 (4.5%) of roughly 310,000 compounds showed an effect of 50% or more. The effect is printed as a negative number. Some of the results follow.
# Molecular target: human ether-à-go-go-related gene (hERG) potassium channel (human, UniProt Q12809)
# Test: primary screen, population patch clamp on CHO cells stably expressing hERG
# 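Further: peak tail current of the secondary pulse compared with the same well before compound.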
# Chain of human ether-à-go-go-related gene (hERG) potassium channel (Q12809 whole entry, looked up): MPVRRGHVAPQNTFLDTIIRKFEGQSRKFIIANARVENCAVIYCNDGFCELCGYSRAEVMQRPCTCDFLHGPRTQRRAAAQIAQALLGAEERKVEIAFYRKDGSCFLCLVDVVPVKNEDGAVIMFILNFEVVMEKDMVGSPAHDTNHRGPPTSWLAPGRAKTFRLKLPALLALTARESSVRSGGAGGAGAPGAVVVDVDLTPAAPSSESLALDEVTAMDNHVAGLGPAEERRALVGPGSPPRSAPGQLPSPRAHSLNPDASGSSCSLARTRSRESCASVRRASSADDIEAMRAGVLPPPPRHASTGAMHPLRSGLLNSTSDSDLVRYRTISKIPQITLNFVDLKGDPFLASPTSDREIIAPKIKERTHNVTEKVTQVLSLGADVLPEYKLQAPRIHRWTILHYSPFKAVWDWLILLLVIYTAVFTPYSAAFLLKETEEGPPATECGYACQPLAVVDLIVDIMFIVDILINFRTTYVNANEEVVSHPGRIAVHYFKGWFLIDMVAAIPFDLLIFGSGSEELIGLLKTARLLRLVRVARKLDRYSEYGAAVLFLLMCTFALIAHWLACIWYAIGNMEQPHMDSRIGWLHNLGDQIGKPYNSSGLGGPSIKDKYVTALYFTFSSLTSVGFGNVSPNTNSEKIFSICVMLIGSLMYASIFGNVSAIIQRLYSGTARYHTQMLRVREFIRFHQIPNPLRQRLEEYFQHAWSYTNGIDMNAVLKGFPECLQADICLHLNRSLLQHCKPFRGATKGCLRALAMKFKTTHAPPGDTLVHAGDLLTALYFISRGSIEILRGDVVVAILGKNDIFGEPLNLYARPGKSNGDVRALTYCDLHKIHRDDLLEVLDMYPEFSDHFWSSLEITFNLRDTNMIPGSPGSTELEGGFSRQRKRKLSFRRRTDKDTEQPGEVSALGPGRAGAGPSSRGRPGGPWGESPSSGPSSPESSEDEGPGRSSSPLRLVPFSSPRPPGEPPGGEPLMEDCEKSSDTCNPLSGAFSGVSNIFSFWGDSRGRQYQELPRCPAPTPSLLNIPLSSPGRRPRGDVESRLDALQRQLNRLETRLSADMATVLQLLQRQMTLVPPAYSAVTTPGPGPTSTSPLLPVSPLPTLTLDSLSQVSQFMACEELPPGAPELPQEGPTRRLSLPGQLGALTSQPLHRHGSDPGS
row,SMILES,"hERG current change (%, negative = inhibition) at 10uM [%]"
1,CCCNC(=O)CSc1nc(Cc2ccccc2)nc2ccccc12,-7.11
2,COC(=O)c1cc(NC(=O)c2c(F)c(F)c(F)c(F)c2F)cc(C(=O)OC)c1,-3.29
3,CCOc1ccc(N(CC(=O)NCCSc2ccccn2)S(=O)(=O)c2ccc(Cl)cc2)cc1,6.45
4,CN(C)CCN(C(=O)c1cccc(Cl)c1)c1nc2c(Cl)cccc2s1.Cl,-52.6
5,Cn1cccc1C(=O)NC1CCCCC1,-10.8
6,COc1ccccc1C(C(=O)NC1CCCC1)N(C(=O)c1csnn1)C1CC1 (stereo not shown),15.2
7,O=C(O)C1=C[C@@H](c2ccc(C(F)(F)F)cc2)C[C@@H](OCc2ccc(CO)cc2)O1,16.7
8,O=C(CCS(=O)(=O)c1ccccc1)Nc1ccccc1-c1nc2ccccc2s1,12.1
9,COc1cc(-c2nnc(SCC(=O)N(C)C3CCS(=O)(=O)C3)o2)cc(OC)c1OC (stereo not shown),17.5
10,CO/N=C/CC(=O)c1cnc(-c2ccc(Cl)cc2)s1,13.9
11,COc1ccc(C2CC(c3ccccc3)=NN2C(=O)COC(=O)c2cccnc2)cc1 (stereo not shown),9.31
12,Cc1cc(NC(=O)CCc2ccc(C)o2)no1,0.613
13,CC(C)C12CN3CC(C(C)C)(CN(C1)C3c1ccccc1)C2O (stereo not shown),-3.63
14,CCOC(=O)c1c(C)[nH]c(C(=O)COC(=O)CNC(=O)c2ccccc2Cl)c1C,1.43
15,COc1cc(C(=O)Oc2cccc(C(=S)N3CCOCC3)c2)cc(OC)c1OC,22.9
16,O=C(NS(=O)(=O)N1CCCC1)C1=C(N2CCCC2)COC1=O,12.4
17,O=c1c2ccccc2ncn1CCOCCOc1cccc(Br)c1,-9.17
18,CCCOc1ccc(CCN2CCC(=O)NC2=O)cc1C,-0.389
19,O=Cc1ccc(OCC(=O)NC(=O)NC2CCCCC2)cc1,-23.5
20,CC(C)(C)c1ccc(C(=O)O)c(C(=O)c2ccc(C(=O)O)cc2)c1,-7.76
21,Cc1c(C(=O)N2CCCCCC2)c(S(=O)(=O)NCc2ccccc2Cl)c(C)n1C,-0.552
22,Cc1cccc(-n2ncc3c(N4CCC(C)CC4)ncnc32)c1,12.6

row,SMILES,"hERG current change (%, negative = inhibition) at 10uM [%]"
1,CC(CN1CCOCC1)OC(=O)c1ccccc1Br.Cl (stereo not shown),5.01
2,Cc1cccc(/C=N/NC(=O)c2ccc(Br)cc2)c1,4.33
3,COc1ccc(NC(=O)COC(=O)/C=C/c2cnc3ccccc3n2)cc1,6.81
4,O=C(NCCCN1CCOCC1)c1cc(C(=O)C2CCCCC2)c[nH]1,-11.8
5,CCOCCCNC(=O)c1c[nH]c2c(CC)cccc2c1=O,31.5
6,O=C(COc1ccc(S(=O)(=O)NC2CCCCC2)cc1Cl)Nc1ccc2c(c1)OCO2,3.95
7,Cc1cccc(C)c1OCc1cc(C(=O)N2CCC[C@H]2C(N)=O)no1,9.25
8,CN1CCC(=NNC(=O)CN(c2ccc(Oc3ccccc3)cc2)S(C)(=O)=O)CC1,9.51
9,CC(C)N1CCN(Cc2nc3c(s2)CCCC3)CC1CCO (stereo not shown),18.9
10,COC(=O)CNc1nc(-c2cccnc2)nc2ccccc12,8.89
11,Cc1ccc(S(=O)(=O)Nc2ccc3c(c2)nc(CCN2CCCC2)n3C)cc1,-42.5
12,CC1Cc2ccccc2N1C(=O)Cn1cnc2ccccc21 (stereo not shown),8.2
13,CCn1c(=O)c2sccc2n2c(CCCC(=O)NCCc3ccc(S(N)(=O)=O)cc3)nnc12,-4.96
14,CCC(=O)Nc1cc2nn(-c3ccc(OC)cc3)nc2cc1C,0.0727
15,N#C/C(=C\c1ccc([N+](=O)[O-])cc1)c1ccccn1,17.7
16,Cc1cc(C)n2c(SCC(=O)N(C)C3CCS(=O)(=O)C3)nnc2n1 (stereo not shown),1.58
17,CCCc1nnc(NC(=O)c2c(O)c3cccc4c3n(c2=O)CC4)s1,19.5
18,O=C(OCc1nnc(-c2ccccc2)o1)C1=COCCO1,0.0738
19,CC(C)NC(=O)c1nc2ccccc2s1,10.3
20,COc1ccc(OCc2nn3c(Cn4cnc5ccccc54)nnc3s2)cc1,-21.6
21,COc1ccc(OC)c(NC(=O)c2cccc(Cn3cc(Br)c([N+](=O)[O-])n3)c2)c1,-13.9
22,COc1ccc(OC)c(NC(=O)CSc2nnc3ccc(-c4ccccn4)nn23)c1,-12.9

row,SMILES,"hERG current change (%, negative = inhibition) at 10uM [%]"
1,Cc1ccccc1NC(=O)c1cccc(C(F)(F)F)c1,-11.7
2,CCc1c(C)sc(NC(=S)NC(C)C2CCCO2)c1C(=O)OC (stereo not shown),9.87
3,O=C(/C=C/c1ccc(Br)cc1)c1ccc(NC(=O)c2ccco2)cc1,7.51
4,NC(=O)N/N=C/C=C/c1ccccc1,21.4
5,Cc1ccc2nc3c(cc2c1)c(NC(=O)C(C)(C)C)nn3CC(C)C,5.96
6,CCOc1ccc(C2C(C#N)=C(N)Oc3nc[nH]c(=O)c32)cc1OC (stereo not shown),11.4
7,COc1ccc(-c2nnc3ccc(SCC(=O)Nc4nc5ccc(C)cc5s4)nn23)cc1OC,-0.00742
8,COc1ccc(S(=O)(=O)N(CC(=O)NCC2CCCO2)c2ccc(Cl)cc2)cc1 (stereo not shown),-36.1
9,COC(=O)Cc1ccc(NC(=S)NCCCN2CCOCC2)cc1,9.54
10,COc1cc(NC(=O)CCc2nnc3ccc(N4CCCC4)nn23)cc(OC)c1OC,6.49
11,Cc1ccc(C(=O)N/C(=C\c2cccs2)C(=O)NCCCN2CCOCC2)cc1,-61.4
12,COc1ccc(Cn2c(=S)[nH]c3cc(C(=O)N4CCN(c5ccccc5)CC4)ccc3c2=O)cc1,33.8
13,Cc1ccnc(NC(=O)/C=C/c2ccccc2[N+](=O)[O-])c1,21.3
14,Cc1ccc(C)c(S(=O)(=O)NCc2ccc3c(c2)OCO3)c1,2.42
15,Oc1ccc(-c2nccc(-c3ccccn3)n2)cc1,12.2
16,S=c1[nH]nc(C2CC2)n1Cc1ccccc1,67.3
17,Cn1c(N)c(C(=O)COC(=O)C2CC(O)CN2S(=O)(=O)c2ccc(Cl)cc2)c(=O)n(C)c1=O (stereo not shown),12.8
18,COc1ccccc1N1CCN(CC(=O)Nc2ccc(CN3CCCCC3)cc2)CC1.Cl,-11.5
19,CC(=O)Nc1ccc(NC(=O)COc2ccc(-c3ccc(C#N)cc3)cc2)cc1,6.87
20,Cc1nnc(NC(=O)CCSCCC(=O)Nc2nnc(C)s2)s1,22.7
21,O=C(Cc1ccccc1F)OCN1C(=O)c2ccccc2C1=O,21.5
22,CCC(C)NC(=O)c1nc2c(nnn2Cc2ccccc2Cl)c(=O)[nH]1 (stereo not shown),16.8

row,SMILES,"hERG current change (%, negative = inhibition) at 10uM [%]"
1,O=C(NCCOc1ccccc1)c1n[nH]c(=O)c2ccccc12,12.1
2,Cc1cccc(N(C)S(=O)(=O)c2ccc3c(c2)C(C)(C)C(=O)N3C)c1,-8.42
3,CCCCC(=O)Oc1c(S(=O)(=O)c2ccc(C)cc2)c(C)nn1C(C)(C)C,-12.5
4,CCOC(=O)c1[nH]c(C)c(C(=O)OCC(=O)N2CCCCC2C)c1C (stereo not shown),11.1
5,CC1CCC2=NN(C(=O)c3ccco3)C(O)(C(F)(F)F)C2C1 (stereo not shown),4.08
6,C=CCOc1ccc(C(c2c(O)nc(SC)[nH]c2=O)c2c(O)nc(SC)[nH]c2=O)cc1,11.2
7,CC(c1ccco1)N(C(=O)Nc1ccccc1)C1CCCCC1 (stereo not shown),11.1
8,O=C(CC(c1ccccc1)c1cc(Br)ccc1O)NCCCN1CCOCC1 (stereo not shown),-31.3
9,Brc1ccc(-c2nnc3n2-c2ccccc2CC3)cc1,-41.3
10,Cc1cccc(NC(=O)CN2C(=O)CSC2=O)c1,14.5
11,CCCN(CC(=O)Nc1ccc(F)c(F)c1F)C(=O)Cc1ccc(S(=O)(=O)N2CCOCC2)s1,-13.6
12,CC(C)(C)c1ccccc1NC(=O)CN1C(=O)NC(Cc2ccccc2)C1=O (stereo not shown),4.43
13,CCc1noc(C)c1C(=O)OCC(=O)Nc1cccc(C)c1,-6.43
14,CC1(C)CC2(C)OC(=N)C1(C#N)C2(C#N)C#N (stereo not shown),10.2
15,CCOc1ccc(NC(=O)CCNS(=O)(=O)c2ccc(Br)s2)cc1,-13.9
16,Cc1nc2ccccn2c1C(=O)N/N=C/c1ccc(CNC(=O)C(=O)Nc2ccccc2)o1,-50.3
17,Cc1ccc(-c2cc(C(=O)NCc3cnn(C)c3C)c3cc(Br)ccc3n2)cc1,8.76
18,Cc1cnc(NC(=O)C2CC(=O)N(c3cccc(Cl)c3)C2)s1 (stereo not shown),7.56
19,Cc1cccc(N2CCN(C(=O)C3CCC(=O)N(C4CC4)C3)CC2)c1C (stereo not shown),0.967
20,COc1ccc(-n2c(Cc3cccn3C)nnc2SCC(=O)NC2CCCC2)cc1,-23.2
21,CC(NC(=O)CSc1nc(C2CC2)n(-c2ccccc2)n1)c1ccco1 (stereo not shown),-29.9
22,CN(C)C(=O)c1ccc(Nc2nc(-c3cccs3)nc3ccccc23)cc1,-11.9
